± gives the standard deviation of the averaged measurements. This is one part of the list.
Each sequence was assayed on PfAP2-G AP2 domain (GST-tagged) (assay: gcPBM binding intensity (ln(normalized median fluorescence intensity)); higher = stronger DNA binding).
Method in brief: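 For binding intensity, the highest Masliner-normalised natural-log median intensity across replicate spots of either probe orientation was taken. Protein bound to the array was stained with Alexa488 anti-GST antibody and scanned at 488 nm. The protein, GST-tagged P. falciparum DNA-binding domains from E. coli at about 25 μg on average, had been applied for 1 h to an Agilent 4 × 180k array of primer-extended double-stranded 36-bp intergenic genomic probes and negative controls.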

“GTGAAATTATATTTTTGTACATATATTATATATTAT [XGTACX_site3387]” and “GGTGCACCCATATACACACACAAATACAATGATAAA [CACACA_site1132]” are within error of each other in “gcPBM binding intensity (ln)” value: 10.8 ± 0.48 for the first, 10.6 ± 0.76 for the second.

“ATATAACATGGACACACACACATATATATATATTAT [CACACA_site6135]” and “AAGTGTTATGAAATATGTACACATATATTATATATA [XGTACX_site6022]” are within error of each other in “gcPBM binding intensity (ln)” value: 10.9 ± 0.51 for the first, 11.4 ± 0.89 for the second.

Going from “TATAAATAAATATGGAGTACCAAAAAAATTATAAAA [XGTACX_site7581]” to “GTATATATCTAAAAATATATATATATATATATATAT [CACACA_negctrl_site788]”, the “gcPBM binding intensity (ln)” value falls from 11.3 ± 0.69 to 9.99 ± 0.59.

Going from “ATCGAAGGGGTACAAAATAAAAATAATTCTTTCAAA [TGCATGCA_negctrl_site373]” to “AAAATAAATATAACCACACACGAAAGAGAGAGAAAA [CACACA_site3272]”, the “gcPBM binding intensity (ln)” value falls from 11.4 ± 1.1 to 10 ± 0.13.

“TAACCATAAGAAGATTGTACATAATAAAAGTATTCT [XGTACX_site1117]” and “AACTGCAAAAAAAGACGTACAAATTATTAATTGCAA [XGTACX_site8929]” are within error of each other in “gcPBM binding intensity (ln)” value: 10.9 ± 0.45 for the first, 11.6 ± 0.87 for the second.

“AAATATAAAAAAAAAAGTACTTTGTTACTTTTCTAT [XGTACX_site6034]” and “TTTTTATTAAATAAAGCACACACAACAACTTTTCAC [CACACA_site9372]” are within error of each other in “gcPBM binding intensity (ln)” value: 11.1 ± 0.69 for the first, 10.6 ± 0.47 for the second.

First: TACAGACATACATACACACATACATATATATATATA [CACACA_site1940]
Second: ATATATATATATATATGTACATACCCAATTGTGTAA [XGTACX_site6352]
The “gcPBM binding intensity (ln)” value of the first is lower: 10.1 ± 0.25 for the first, 11.2 ± 0.56 for the second.

“ATTTAAAATGGTTATACACACATAAAAGGGGAAATG [CACACA_site2649]” and “ATTTTTATGTTGAAAAGTACTTGAATCCCATGTAAC [XGTACX_site4453]” are within error of each other in “gcPBM binding intensity (ln)” value: 10.2 ± 0.21 for the first, 11 ± 0.64 for the second.

First: TATCCATATTTGTTCACACACACACCCATTTATATA [CACACA_site3571]
Second: TTAATCTTTCCTACATGTACACACAGAAAAAAAAAA [XGTACX_site5213]
The “gcPBM binding intensity (ln)” value of the first is lower: 10.35 ± 0.085 for the first, 11.5 ± 1 for the second.

Compared with “TTCTTTTTTTTTAAAACAAACAAACAAACAAACAAA [CACACA_negctrl_site832]”, “TATTTATTTATTTAGTGTACATTTATATTTGTTCAT [XGTACX_site7575]” is higher in “gcPBM binding intensity (ln)” value: 10.1 ± 0.38 for the first, 11.4 ± 0.74 for the second.

“TAATCATAAAAAAATACACACATATATAATATATAT [CACACA_site1983]” and “AATATAAATAAAAAATTGATTTCTTTAAAAAGGTAT [CACACA_negctrl_site1038]” are within error of each other in “gcPBM binding intensity (ln)” value: 9.82 ± 0.17 for the first, 9.67 ± 0.18 for the second.

Compared with “TACAAATGAGAAATATGTACATAAAAAAAAAAAAAT [XGTACX_site801]”, “TTGTTCTTTCAAATTATACACACCAAAAAAAAAAAA [CACACA_site3070]” is lower in “gcPBM binding intensity (ln)” value: 11.4 ± 0.81 for the first, 10.1 ± 0.42 for the second.

“ATACAAAATCTAATTTGTACACAATGTTTGATTTTT [XGTACX_site5438]” and “TAAATATATATAACATGTACATAAAATATATATATA [XGTACX_site4431]” are within error of each other in “gcPBM binding intensity (ln)” value: 11.1 ± 0.75 for the first, 11.2 ± 0.68 for the second.

Compared with “TTTTTTCTTTTTTTTTTTAATTATAAACATGATATT [GTGCAC_negctrl_site144]”, “TATCTTCATTGTTGACGTACAGTATTTCTAAACGTT [XGTACX_site3439]” is higher in “gcPBM binding intensity (ln)” value: 9.75 ± 0.057 for the first, 11.5 ± 0.72 for the second.

Compared with “ATAATTAAAAATAATATATATATAATATGATATTAT [GTGCAC_negctrl_site194]”, “CCACTTGTGTAATGTTGTACAAAAATAAATATATTT [XGTACX_site4598]” is higher in “gcPBM binding intensity (ln)” value: 9.43 ± 0.16 for the first, 11.2 ± 0.57 for the second.

“CTATGAACACACACATGTACATATATTAACTCGCTA [XGTACX_site8805]” and “AAAAAAAAAAAAAACACACACACACGCACATATACA [CACACA_site7288]” are within error of each other in “gcPBM binding intensity (ln)” value: 11.1 ± 0.52 for the first, 10.4 ± 0.23 for the second.

Going from “TACACATACAGACATACACACATACACATATACACA [CACACA_site6918]” to “TTGCTTTCTTTTTTTTGTACTCATATCTACTATCAT [XGTACX_site7711]”, the “gcPBM binding intensity (ln)” value rises from 10.2 ± 0.23 to 11.3 ± 0.62.

First: CATAAAAATGAACATACACACATATATATATATATA [CACACA_site2498]
Second: TACCTTTATTAATAAAGTACATTAATCTGTGTATAC [XGTACX_site8720]
The “gcPBM binding intensity (ln)” value of the first is lower: 10.1 ± 0.24 for the first, 11.2 ± 0.62 for the second.

First: ATTATTATGTAGAAGGTGCTATGTTCTATAAATATA [GTGCAC_site9545]
Second: CGAGCAAGACGGGGTGCACACAAACTAATATGCCGA [CACACA_site7936]
The “gcPBM binding intensity (ln)” value of the first is lower: 9.895 ± 0.021 for the first, 10.6 ± 0.64 for the second.

“GTTGTGGAAAGAAGTTGTACATAAAATATTATATAA [XGTACX_site4352]” and “AAAAAAAAAAAAATGTGGACACAATTGTGTGTTTGT [XGTACX_site3563]” are within error of each other in “gcPBM binding intensity (ln)” value: 11.3 ± 0.79 for the first, 11.2 ± 0.63 for the second.

Compared with “TTTTTGTTAAAATAAATATTATAAATATATTAATAT [TGCATGCA_negctrl_site239]”, “TACATATTTTATAGCACACAAATAATAATATGTAGT [CACACA_site688]” is higher in “gcPBM binding intensity (ln)” value: 9.71 ± 0.2 for the first, 10.12 ± 0.035 for the second.

First: AGGCCTTTTAGTATTTCACACACGTAAATGCGTATA [CACACA_site1108]
Second: TATTATGTCTAAAATAACATATTAATATATTATTTC [CACACA_negctrl_site285]
The “gcPBM binding intensity (ln)” value of the first is higher: 10.05 ± 0.028 for the first, 9.77 ± 0.11 for the second.

“TTAATATTTTATTTCACACACATAAATGCCCCAAAC [CACACA_site1887]” and “AGAGTTCTCCTATGCACACAAAAAACTTTCATTTAT [CACACA_site4193]” are within error of each other in “gcPBM binding intensity (ln)” value: 10.6 ± 0.46 for the first, 10.2 ± 0.14 for the second.

“TTATTCATAAAAACAAAAAACAAAAATGAAATAGGA [CACACA_negctrl_site1123]” and “TATGATATAATATACACACATACATATATATATATA [CACACA_site510]” are within error of each other in “gcPBM binding intensity (ln)” value: 9.98 ± 0.057 for the first, 10 ± 0.16 for the second.

Going from “ACAAAATTGAAATTCACACAAAAACTATACTTTTTA [CACACA_site4638]” to “ATATCTACTTTTTTATGTACGAAAAAAATACGGATT [XGTACX_site8937]”, the “gcPBM binding intensity (ln)” value rises from 9.73 ± 0.11 to 11.2 ± 0.69.

“CATCATATAAATTCAAGTACAAGAAAAAGTAATATA [XGTACX_site2383]” and “AAATAATTTTTATTTGTACACACATACATATATATT [CACACA_site8240]” are within error of each other in “gcPBM binding intensity (ln)” value: 11.1 ± 0.59 for the first, 11.2 ± 0.73 for the second.

Compared with “TAAATAAAGATATATACACACATATTTATATTTATA [CACACA_site6431]”, “TATATATATATTAATAGTACATATTATGTAAGCCTA [XGTACX_site2826]” is higher in “gcPBM binding intensity (ln)” value: 9.655 ± 0.007 for the first, 10.9 ± 0.61 for the second.

“TTTTTTTTTTTTTTTGTGCACAATATAATTTTTAAT [GTGCAC_site9747]” and “TACGGATATATATATTGTACATATATATAATATATA [XGTACX_site3156]” are within error of each other in “gcPBM binding intensity (ln)” value: 10.3 ± 0.56 for the first, 10.9 ± 0.52 for the second.

Source: the supplement of paper PMC11417369
